Where “and” joins values, the source holds several entries; their conditions need not be identical. Equal values may be shown once. Screen size: about 110,000 compounds; about 230 (0.21%) showed an effect of 50% or more. This is one part of the list.
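Further: 30 min substrate incubation versus DMSO and 10 µM JCP410 controls.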

The target of this experiment is DPAP1 (Plasmodium falciparum, UniProt Q8IIJ9). Nature of the experiment: primary screen, percent inhibition; read by cleavage of a fluorogenic dipeptide substrate; higher = more effect of the substance. More on the design: species or system P. falciparum D10 trophozoite lysates; single well.
Sequence of DPAP1 (Q8IIJ9 whole entry, looked up): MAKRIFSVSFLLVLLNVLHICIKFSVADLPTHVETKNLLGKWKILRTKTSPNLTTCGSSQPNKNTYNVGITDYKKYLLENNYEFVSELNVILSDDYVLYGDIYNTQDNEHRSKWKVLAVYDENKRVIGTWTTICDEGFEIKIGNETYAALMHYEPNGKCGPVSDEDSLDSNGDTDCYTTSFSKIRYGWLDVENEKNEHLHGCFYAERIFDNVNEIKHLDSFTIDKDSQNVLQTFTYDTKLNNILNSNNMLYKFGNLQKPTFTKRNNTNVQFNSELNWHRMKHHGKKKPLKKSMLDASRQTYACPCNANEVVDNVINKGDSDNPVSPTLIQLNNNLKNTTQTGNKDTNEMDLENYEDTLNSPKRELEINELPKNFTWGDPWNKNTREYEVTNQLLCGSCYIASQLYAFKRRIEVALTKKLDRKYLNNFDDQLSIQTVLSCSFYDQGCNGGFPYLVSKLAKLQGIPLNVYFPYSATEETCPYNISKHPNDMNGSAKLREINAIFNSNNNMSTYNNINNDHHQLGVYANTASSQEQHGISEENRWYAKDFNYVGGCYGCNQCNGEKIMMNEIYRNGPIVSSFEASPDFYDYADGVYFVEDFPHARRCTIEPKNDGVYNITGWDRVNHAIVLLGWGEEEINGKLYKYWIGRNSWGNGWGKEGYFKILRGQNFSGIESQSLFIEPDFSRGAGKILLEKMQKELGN
`CC12CN(C(=O)c3ccccc3)C3(C#N)CC1CCC23C` (stereo not shown): the “% Inhibition @ 10 uM” value is given as -1.98%.
Turning to `Nc1nc(SCC(=O)Nc2ccc(F)cc2)sc1C(=O)Nc1ccc(F)cc1`, the “% Inhibition @ 10 uM” value worked out at 5.44%.
With `CNC(=S)N1N=C(c2cccs2)CC1c1ccc(F)cc1` (stereo not shown), the “% Inhibition @ 10 uM” value amounted to 3.86%.
With `CNc1cnn(C23CC4CC(CC(C4)C2C(=O)O)C3)c(=O)c1Cl` (stereo not shown), the “% Inhibition @ 10 uM” value worked out at 5.84%.
To `Cc1ccc(NC(=O)C[n+]2ccc3ccccc3c2)c(C)c1` belongs 7.84%; to `O=C1CC(c2cccc(Cl)c2Cl)c2cc3c(cc2N1)OCO3` (stereo not shown), -7.48%.
Take `O=C(O)CCP(=O)(O)CN1CCCCCC1`: the “% Inhibition @ 10 uM” value is on record as -7.15%.
The result for `O=C(Nc1ccc(Cl)c(Cl)c1)Nc1cc([N+](=O)[O-])ccc1OC(=O)Nc1ccc(Cl)c(Cl)c1` reads -0.216%; that for `Cc1cccc(-n2ncc3c(NCCc4ccccc4)ncnc32)c1`, -2.49%; that for `CC(=O)c1ccc(NC(=O)CCN2C(=O)c3ccccc3C2=O)cc1`, 19.4%.
Turning to `Cc1cccc(-n2cc(-c3ccccc3)c3c(NCCN4CCOCC4)ncnc32)c1`, the “% Inhibition @ 10 uM” value was -3.4%.
On to `Cc1nc2nc(NC(=O)c3cccnc3)nn2c(C)c1Cl`, for which the “% Inhibition @ 10 uM” value turned out to be 0.401%.
Consider `CN1CCn2c1nc(N1CCCCC1)nc2=O`, for which the “% Inhibition @ 10 uM” value came out at 1.25%.
As for `CC1Nc2nc(NC(=O)c3ccc[n+](C)c3)nc(O)c2N(C(=O)c2ccc[n+](C)c2)C1C` (stereo not shown), the “% Inhibition @ 10 uM” value is reported as 4.28%.
For the molecule `N#CC1=C(N)Oc2nc(S)nc(O)c2C12C(=O)Nc1ccccc12` (stereo not shown), the “% Inhibition @ 10 uM” value is listed as -1.97%.
The result for `COCCNC(=O)Cn1cc(C(=O)c2ccccc2)c2ccccc21` reads -1.82%.
To `O=C(CSc1nc2ccccc2s1)NC1CCCC1` belongs -1.05%; to `N#Cc1ccc(NC(=O)Nc2ccc(Cl)cc2)cc1`, 2.51%.
On to `O=C(CN1C(=O)S/C(=C/c2c[nH]c3ccccc23)C1=O)N1CCN(c2ccccc2)CC1`, for which the “% Inhibition @ 10 uM” value was 7.33% and -0.519%.
To `CCCN1C(=O)c2[nH]nc(-c3cc(C)ccc3O)c2C1c1ccc(O)c(OC)c1` (stereo not shown) belongs 0.558%.
The result for `COc1ccc(NC(=O)CCC(=O)Nc2ccc(C)cc2)cc1` reads -5.92%.
As for `CCOCCCNC(=O)c1cnn(-c2ccc(OC)cc2)c1C1CCN(C(=O)OC(C)(C)C)CC1`, the “% Inhibition @ 10 uM” value is given as -4.22%.
To `C[C@]12CCCCC1CCC1C2CC[C@@]2(C)C1CC[C@@]2(O)CNCCO` (stereo partly shown) belongs -4.03%; to `CC(=O)Nc1ccc(CN2CC=C(c3ccc(F)cc3)CC2)cc1`, 3.15%; to `COc1ccc(Cl)cc1NC(=O)CN(c1ccccc1)S(=O)(=O)c1ccc(C)cc1`, 2.42%.
To `CC(C)C[C@H](NC(=O)c1coc(-c2ccc3c(c2)OCO3)n1)C(=O)NCC#N` belongs -2.35%.
For `N#CC1=C(N)OC2=C(C(=O)CC(c3ccccc3)C2)C1c1ccoc1` (stereo not shown), the “% Inhibition @ 10 uM” value was -1.98%.
Consider `Nc1nc(CS(=O)(=O)c2ccc(Cl)cc2)cs1`, for which the “% Inhibition @ 10 uM” value is given as -0.9%.
The result for `CCN(CC)CCCNC(=O)c1ccc(C(C)(C)C)cc1` reads -1.82%; that for `COc1cc(C2CC(=O)OC3=C2C(=O)CC(C)(C)C3)cc(OC)c1OC` (stereo not shown), -0.834%; that for `Cn1c(=O)c2c(-c3ccccc3)n(-c3cc(Cl)ccc3O)cc2n(C)c1=O`, 3.62%.
`CN1CCN(c2c(S(=O)(=O)c3ccc(Cl)cc3)cnc3cc4c(cc23)OCCO4)CC1`: the “% Inhibition @ 10 uM” value was -1.2%.
As for `CN1C(=O)C(Cc2ccc3c(c2)OCO3)C(=O)N(C)C1=O`, the “% Inhibition @ 10 uM” value is on record as -1.42%.
Consider `O=C(NC(=S)NCc1ccccc1)C12CC3CC(CC(C3)C1)C2`, for which the “% Inhibition @ 10 uM” value is 0.058%.
Turning to `O=C(NCc1cccnc1)c1ccc2c(c1)sc1nc(-c3ccc(F)cc3)cn12`, the “% Inhibition @ 10 uM” value was -2.97%.
On to `Cc1ccc(CNC(=O)Cc2c(C(=O)O)[nH]c3ccc(Cl)cc23)o1`, for which the “% Inhibition @ 10 uM” value is recorded as 1.3%.
Turning to `C=CCOc1ccc(Oc2nc(N(C)C)nc(N3CCCC3)n2)nn1`, the “% Inhibition @ 10 uM” value is on record as -1.31%.
Regarding `Cc1cccc(Cn2c(S)nc3c2c(=O)[nH]c(=O)n3C)c1`, the “% Inhibition @ 10 uM” value was -2.16%.
Take `Cc1ccccc1C(=O)N(C)Cc1ccccc1`: the “% Inhibition @ 10 uM” value is given as -4.4%.
To `Cc1ccccc1S(=O)Cc1ccc(C(=O)N2CCCCCC2)o1` (stereo not shown) belongs 0.458%.
For the molecule `CCOC(=O)C1=C(CN2CCOCC2)NC(=O)NC1c1ccc(F)cc1` (stereo not shown), the “% Inhibition @ 10 uM” value was -2.48%.
To `Cc1cccc(C(=O)NC2CCSC2=O)c1` (stereo not shown) belongs -1.62%.
Take `Cc1nc2ccc(S(=O)(=O)N(CC(=O)Nc3ncccc3C)Cc3ccccc3)cc2s1`: the “% Inhibition @ 10 uM” value is reported as -6.11%.
Consider `Cc1ccc(Oc2nc3ccccn3c(=O)c2/C=C(\C#N)S(=O)(=O)c2ccc(Cl)cc2)c(C)c1`, for which the “% Inhibition @ 10 uM” value is recorded as -5.1%.
Turning to `Cc1ccc(-c2cn3nc(N4CCC(C(=O)NCc5cccnc5)CC4)sc3n2)cc1`, the “% Inhibition @ 10 uM” value amounted to 0.434%.
The result for `Cc1ccnc(NC(=O)COc2cc(C)c(Cl)c(C)c2)c1` reads 2.17%; that for `Cc1cccn2c(=O)c3cc(S(=O)(=O)c4ccccc4)c(=N)n(Cc4ccco4)c3nc12`, 22.7%.
Turning to `CC(C)CC(C(=O)NCC#N)c1cccc(-c2cccc(OC3CCN(CCO)CC3)c2)c1` (stereo not shown), the “% Inhibition @ 10 uM” value is recorded as -3.04%.
In the case of `Nc1nc(CN2CCC(Cc3ccccc3)CC2)nc(Nc2ccccc2)n1`, the “% Inhibition @ 10 uM” value was 0.408%.

(Values after article PMC6919601, “Identification of Plasmodium dipeptidyl aminopeptidase allosteric inhibitors by high throughput screening” (PLoS ONE, 2019).)
